Data from PubChem BioAssay AID1347044 (National Center for Advancing Translational Sciences (NCATS), 2019).
This is one part of the list. These are further read-outs of the screen, such as a control signal, another cell line or another target. No call is given for them. Compounds called inactive in the main read-out are mostly missing here. The note in brackets gives the kind of curve behind each potency; many fits are weak.

Experiment: Natriuretic polypeptide receptor (hNpr1) antagonism - Confirmation; note: nearly all actives have a fitted effect of over 70% in size
Conditions: HEK293 hNpr1 cGMP GloSensor luminescence, ANP-stimulated; measured here: HEK-hNpr1 cytotoxicity, CellTiter-Glo
Outline: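 HEK293 cells expressing hNpr1 and the pGS-40F GloSensor cGMP sensor, loaded with 2% GloSensor reagent for 2 h, then treated 30 min with compound at room temperature. Luciferase luminescence read before and 20 min after 0.1 nM hNppA stimulation.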
Tags give direction and shape of the fitted curve.

Row | Compound | CC50
1 | O=C1COc2ccc(-c3ccc(Cl)cc3)nc2CN1Cc1ccccc1 | 62.7 µM [falling, single point]
2 | CN(Cc1cccnc1)c1ccc2ncc(Nc3cc(F)cc(N4CCOCC4)c3)n2n1 | 31.4 µM [falling, partial curve, poor fit]
3 | CCOc1ccccc1C(=O)NC1CCN(c2cc(C(F)(F)F)nc(C)n2)CC1 | 21.7 µM [falling, partial curve]
4 | O=C(N1CCN(c2cc(-c3ccc(Cl)cc3)[nH]n2)CC1)C1(c2ccccc2)CC1 | 24.3 µM [falling, partial curve]
5 | Cn1cccc1CN1CCn2c(nn(-c3ccc(Cl)cc3)c2=O)C1 | 24.3 µM [falling, partial curve, poor fit]
6 | C[S+](=O)([O-])NCCn1ccc2cc(OC3CCN(c4ncc(F)cn4)CC3)cnc21 | 28 µM [falling, partial curve]
7 | COc1ccc(Cl)cc1C(=O)N1CCN(C(=O)c2nnn3c2COC(c2ccccc2)C3)CC1 (configuration not stated) | 38.5 µM [falling, single point]
8 | N#Cc1ccc(NC(=S)N[C@H]2CO[C@H]3[C@@H]2OC[C@H]3OC(=O)Nc2ccccc2)cc1 | 31.4 µM [falling, partial curve]
9 | CCOc1cc2c(cn1)NCCN(Cc1ccncc1Cl)C2 | 31.4 µM [falling, partial curve]
10 | Cc1nn2c(c1-c1ccccc1[S+](C)(=O)[O-])N(CCCc1ccccc1)CCC2 | 70.3 µM [falling, single point]
11 | COc1ccc(C(=O)N2CCCN(c3cc(-c4ccc(Cl)cc4)[nH]n3)CC2)cc1F | 19.3 µM [falling, partial curve]
12 | COc1ccc(C(=O)N2CCC(Cc3nc(-c4ccccc4)no3)CC2)cc1OC | 9.68 µM [falling, partial curve]
13 | CC(C)c1noc(-c2cn(C3CCN(C(=O)c4ccc(OC(F)(F)F)cc4)C3)nn2)n1 (configuration not stated) | 15.3 µM [falling, partial curve]
14 | Cc1ccc(C2Cn3nnc(C(=O)N4CCN(C(=O)Cc5cccc(F)c5)CC4)c3CO2)cc1 (configuration not stated) | 21.7 µM [falling, partial curve]
15 | CCCc1ccc(S(=O)(=O)NC2CCN(c3ccc(=O)n(CC4CC4)n3)CC2)cc1 | 19.3 µM [falling, partial curve]
16 | N#Cc1cccc(CN2CCC(C3=NC(O)c4cc(F)ccc4N3)CC2)c1 (configuration not stated) | 15.3 µM [falling, partial curve]
17 | NC(=O)Cc1c[nH]c2ncc(-c3ccccc3Oc3ccccc3)cc12 | 35.3 µM [falling, partial curve]
18 | COc1ccc(-c2noc(CC3CCN(C(=O)c4cc(F)ccc4F)CC3)n2)cc1 | 10.9 µM [falling, partial curve]
19 | CCC(C)NC(=O)N1CC(Oc2ccc(-c3noc(C4CCOCC4)n3)cc2)C1 (configuration not stated) | 6.11 µM [falling, full curve]

Row | Compound | CC50
20 | O=[S+]1([O-])NCC2(CCCN(Cc3ccc(C(F)(F)F)cc3)C2)Oc2ncccc21 (configuration not stated) | 21.7 µM [falling, partial curve, poor fit]
21 | O=C(Nc1ccc(Cl)cc1)c1nc2c(o1)CCN(Cc1cc(F)ccc1F)CC2 | 35.3 µM [falling, partial curve]
22 | O=C(c1ccc(Cl)cc1Cl)N1CCN(c2cc(-c3ccccc3)[nH]n2)CC1 | 17.2 µM [falling, partial curve]
23 | CN(C)C(=O)c1cc2c(s1)CCC(C(=O)N1CCN(c3cccc(Cl)c3)CC1)C2 (configuration not stated) | 19.3 µM [falling, partial curve]
24 | CC(C)S(=O)(=O)N1CC(Oc2ccc(-c3noc(C4CCOCC4)n3)cc2)C1 | 13.7 µM [falling, partial curve]
25 | COc1ccc(OCC2(C)COc3ccc(C(=O)Nc4ccc(OC)nc4)cc3N2)cc1 (configuration not stated) | 35.3 µM [falling, partial curve]
26 | Cc1nn2c(c1-c1ccccc1C(C)C)N(CCC(C)C)CCC2 | 49.8 µM [falling, single point]
27 | CN(C)c1ccc(C(=O)N[C@H]2CO[C@H]3[C@@H]2OC[C@@H]3n2nnnc2Oc2cccc(N(C)C)c2)cc1 | 19.3 µM [falling, partial curve]
28 | CC1=NS(=O)(=O)N(C)C=C1C(=O)OCc1noc(-c2ccccc2C)n1 | 17.2 µM [falling, partial curve]
29 | O=C(C1CCCC1)N1CCC(CCOc2ccc(F)cc2)C1 (configuration not stated) | 30.6 µM [falling, single point]
30 | O=C(c1ccc(F)c(Cl)c1)N1CCN(C(=O)c2nnn3c2COC(c2ccccc2)C3)CC1 (configuration not stated) | 24.3 µM [falling, partial curve]
31 | O=C(Nc1ccc(F)c(Cl)c1)C1=NO[C@@H]2CN(Cc3cccnc3)C[C@H]12 | 35.3 µM [falling, partial curve]
32 | O=C1COc2ccc(NCCc3ccccn3)nc2CN1Cc1ccc(C(F)(F)F)cc1 | 43.2 µM [falling, single point]
33 | CC(C)c1ccc(N2C(=O)[C@@H]3C[C@@H](NC(=O)C4CCN(c5nccc(C(F)(F)F)n5)CC4)CCN3C2=O)cc1 | 4.32 µM [falling, full curve, poor fit]
34 | COc1ccc(NC(=O)N2CCCC(c3noc(COc4ccccc4)n3)C2)c(C)c1 (configuration not stated) | 30.6 µM [falling, single point]
35 | COc1cccc(CNC(=O)Cn2c(N(C)Cc3ccccc3)nc(C)cc2=O)c1OC | 27.3 µM [falling, partial curve]
36 | COc1cc(OC)cc(C(=O)N2CCCN(c3cc(-c4ccc(Br)cc4)[nH]n3)CC2)c1 | 27.3 µM [falling, single point]
37 | COc1ccc(CC(=O)N2CCC(Cc3nc(-c4ccc(OC)cc4)no3)CC2)cc1 | 4.85 µM [falling, full curve]
